Reference: article PMC4336329 (PLoS ONE, 2015)
Out of some 310,000 compounds screened, about 14,000 (4.5%) showed an effect of 50% or more. Effects have a minus sign here. The list shows a part of the results.

The compounds below were run against human ether-à-go-go-related gene (hERG) potassium channel (human, UniProt Q12809) (assay: primary screen, population patch clamp on CHO cells stably expressing hERG).
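Note: peak tail current of the secondary pulse compared with the same well before compound.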

Sequence of human ether-à-go-go-related gene (hERG) potassium channel (Q12809 whole entry, looked up): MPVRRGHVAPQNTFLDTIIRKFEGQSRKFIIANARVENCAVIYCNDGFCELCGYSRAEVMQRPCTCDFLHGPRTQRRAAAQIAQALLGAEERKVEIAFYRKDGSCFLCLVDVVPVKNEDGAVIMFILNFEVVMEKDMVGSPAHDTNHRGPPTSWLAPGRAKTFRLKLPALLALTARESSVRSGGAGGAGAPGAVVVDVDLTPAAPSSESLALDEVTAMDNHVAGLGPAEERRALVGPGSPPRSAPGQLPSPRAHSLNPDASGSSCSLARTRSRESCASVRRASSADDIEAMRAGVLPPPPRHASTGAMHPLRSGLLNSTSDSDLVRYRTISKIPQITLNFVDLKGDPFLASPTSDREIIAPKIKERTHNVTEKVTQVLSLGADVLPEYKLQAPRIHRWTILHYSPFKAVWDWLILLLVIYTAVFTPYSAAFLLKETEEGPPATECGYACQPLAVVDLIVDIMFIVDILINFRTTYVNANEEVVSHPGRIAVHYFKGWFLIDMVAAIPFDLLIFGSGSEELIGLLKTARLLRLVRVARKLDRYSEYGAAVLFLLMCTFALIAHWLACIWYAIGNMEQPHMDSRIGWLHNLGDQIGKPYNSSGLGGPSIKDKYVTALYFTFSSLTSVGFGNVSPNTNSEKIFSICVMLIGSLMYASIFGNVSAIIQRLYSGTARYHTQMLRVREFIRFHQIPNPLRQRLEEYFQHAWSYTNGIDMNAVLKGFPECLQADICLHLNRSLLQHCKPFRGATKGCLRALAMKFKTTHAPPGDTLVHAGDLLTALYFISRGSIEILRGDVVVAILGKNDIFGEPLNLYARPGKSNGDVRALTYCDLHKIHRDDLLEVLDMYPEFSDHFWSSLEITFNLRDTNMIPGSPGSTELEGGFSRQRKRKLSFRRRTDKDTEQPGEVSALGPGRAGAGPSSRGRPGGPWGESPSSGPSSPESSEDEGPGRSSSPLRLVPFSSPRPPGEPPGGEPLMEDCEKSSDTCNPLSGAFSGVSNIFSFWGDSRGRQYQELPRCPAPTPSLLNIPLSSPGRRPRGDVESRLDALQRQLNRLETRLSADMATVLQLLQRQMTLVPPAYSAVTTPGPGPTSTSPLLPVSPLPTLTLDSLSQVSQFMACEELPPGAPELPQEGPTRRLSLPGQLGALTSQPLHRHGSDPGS

| SMILES | hERG current change (%, negative = inhibition) at 10uM |
| --- | --- |
| CCC(C)[C@H](N)c1nnc(SCC(=O)Nc2cccc(Cl)c2)o1.Cl (stereo partly shown) | -15.6% |
| Cc1ccsc1-c1nc(CN2CCN(C)C(=O)[C@@H]2C)c(C)o1 | -52.5% |
| O=CNCC(=O)NC1CCCCCC1 | 20.5% |
| O=C(NCc1ccc(-c2csnn2)cc1)c1cc(Cl)cc(Cl)c1 | 0.59% |
| COc1ccc(S(=O)(=O)Nc2c(C(=O)O)[nH]c3ccc(OC)cc23)c(OC)c1 | 32.2% |
| CCOc1ccc(S(=O)(=O)N(CC)CC(=O)NCc2cccnc2)cc1 | -38% |
| O=C(c1ccc(Cl)c(Cl)c1)N1CCC(=O)N(C(COCc2ccccc2)Cc2ccccc2)CC1 (stereo not shown) | -46% |
| O=C(COc1ccc([N+](=O)[O-])cc1)NC(C(=O)O)C(O)c1cccc([N+](=O)[O-])c1 (stereo not shown) | 13.2% |
| O=C(Nc1ccc(-c2csc(Nc3cccc(C(F)(F)F)c3)n2)cc1)c1cccc(C(F)(F)F)c1 | 9.98% |
| COc1ccccc1CNC(=O)Cn1nc(C(F)(F)F)cc1C | -1.14% |
| CN(C(=O)COc1ccc(Oc2ccccc2)cc1)C1CCS(=O)(=O)C1 (stereo not shown) | -8.76% |
| COc1cc2cc(Oc3ccc4ccc(=O)oc4c3)c(=O)oc2cc1O | 16.5% |
| CC1CCCCC12NC(=O)N(CC(=O)c1ccc[nH]1)C2=O (stereo not shown) | 0.351% |
| Cn1cnnc1SC1CCCCC1NS(=O)(=O)c1ccccc1 (stereo not shown) | -0.847% |
| CCn1nc(C)c(CNC(=O)c2cc(COc3ccccc3SC)on2)c1C | 15.9% |
| COC(=O)c1sccc1NC(=O)Nc1ccccc1C | 9.22% |
| COCn1c(-c2ccccc2)nc2ccccc21 | -5.43% |
| CC(Oc1ccc2cc(-c3ccccc3)c(=O)oc2c1)C(=O)NCC1CCC(C(=O)O)CC1 (stereo not shown) | 15.7% |
| Brc1cccc(CNc2nc3ccccc3n2CCN2CCCCC2)c1 | -67.8% |
| CCc1nnc(NC(=O)C2CC(=O)N(Cc3ccccc3)C2)s1 (stereo not shown) | 13.4% |
| CC(C)=C(NC(=O)c1ccccc1)C(=O)Nc1cccc(C(=O)O)c1 | 12.1% |
| Cc1nc(N)sc1-c1csc(Nc2cccc(O)c2)n1 | -1.08% |

| SMILES | hERG current change (%, negative = inhibition) at 10uM |
| --- | --- |
| CC(=O)N1CCN(c2nc(N)c(C#N)c(CC#N)c2C#N)CC1 | -7.08% |
| COC(=O)C1=C(C)N(C)C(=O)NC1c1cccc2ccccc12 (stereo not shown) | 9.62% |
| O=C(CSc1nc2ccccc2[nH]1)Nc1ccc2[nH]c(=O)[nH]c2c1 | 7.16% |
| CCOC(=O)/C(C#N)=C/c1cn(CCOc2ccc(OC)cc2)c2ccccc12 | 2.19% |
| COc1ccc(NC(=O)c2ccc(NCCN3C(=O)CCC3=O)c([N+](=O)[O-])c2)cc1 | 3.51% |
| C=CCNC(=O)C1CC(=O)N(c2ccc(OCC(=O)NCc3ccccc3)cc2)C1 (stereo not shown) | -2.6% |
| Cn1c(C(=O)NCCCN2CCN(c3ccccc3F)CC2)cc2c(=O)[nH]c3ccccc3c21 | -10.9% |
| O=C(O)Cc1cc(C(=O)Nc2ccc(Br)cc2)sc1-c1ccccc1 | 8.22% |
| COc1ccccc1NC(=O)CC(c1ccc(OC(C)C)cc1)c1ccccc1OC (stereo not shown) | -1.62% |
| COc1ccc(S(=O)(=O)Nc2ccccc2SC)cc1C | -26.6% |
| CN(c1ccccc1)S(=O)(=O)c1nnc(NC(=O)COc2ccccc2)s1 | 24.5% |
| COCCn1c(SCC(=O)c2ccc3c(c2)OCCO3)nnc1C(C)C | 1.5% |
| CCO.N#CC1=C(N)Oc2c(oc(CO)cc2=O)C1c1ccccc1[N+](=O)[O-] (stereo not shown) | -1.44% |
| O=[N+]([O-])c1ccc(SCc2ccncc2)nc1 | 30.3% |
| CC(C(=O)Nc1cc(C(F)(F)F)ccc1N1CCOCC1)N1C(=O)C2CC=CCC2C1=O (stereo not shown) | -13.5% |
| CC(C)c1cc(C(=O)OCC(=O)NC(=O)NCc2ccco2)c(O)c(C(C)C)c1 | 22.5% |
| Cc1nccn1CCCNC(=O)CC1C(=O)NCCN1Cc1ccccc1C(F)(F)F (stereo not shown) | 9.64% |
| Cc1cc(C)nc(SCC(=O)NNC(=O)c2cccs2)n1 | -7.19% |
| CCNC(=S)NCc1ccco1 | 2.01% |
| CCOC(=O)CSC1=C(C#N)C(c2ccccc2C)C2=C(CCCC2=O)N1 (stereo not shown) | -1.96% |
| Cc1cc(C)c(NS(=O)(=O)c2ccc(Cl)c(C(=O)O)c2)c(C)c1 | -6.04% |
| CCOC(=O)C1(CCCc2ccccc2)CCN(C2CCCC2)CC1 | -69.7% |

| SMILES | hERG current change (%, negative = inhibition) at 10uM |
| --- | --- |
| O=C(CN1CCC(NC(=O)Cc2ccccc2)CC1)Nc1ccccc1Br | -29.2% |
| COc1ccc(CNC(=O)COc2ccc(OC)cc2)cc1 | 13.8% |
| O=C1NC(=O)C(=Cc2ccc(-c3ccccc3[N+](=O)[O-])o2)C(=O)N1 | 1.79% |
| CNC[C@H](CC1CCCCC1)NC[C@H](Cc1ccccc1)NCCC12CC3CC(CC(C3)C1)C2 | 7.27% |
| Cc1cc(C(=O)N/N=C/c2cccc(OC(=O)c3cccc(Br)c3)c2)n[nH]1 | 11.7% |
| Cl.OCCN1CCN(CC(O)COCCOc2ccc(Br)cc2)CC1 (stereo not shown) | -20.2% |
| OCCC1CN(Cc2ccc3c(c2)CCO3)CCN1C1CCCC1 (stereo not shown) | -12.7% |
| Fc1ccc(-c2csc(Nc3ccccn3)n2)cc1 | 13.8% |
| Cc1ccc(C(=O)N2CCN(S(C)(=O)=O)C2)cc1 | -5.49% |
| Cc1ccc(S(=O)(=O)NCCC(=O)Nc2cc(S(=O)(=O)N(C)C)ccc2C)cc1C | -7.95% |
| O[C@@H]1CN(Cc2ccc(-n3cccn3)cc2)CC[C@H]1N1CCN(c2ccccc2F)CC1 | -67.5% |
| CCCOc1cccc(C(=O)NCCNC(=O)c2ccccn2)c1 | 2.07% |
| COC(=O)c1ccsc1NC(=O)CN1CCN(c2ncccn2)CC1 | -1.35% |
| COc1ccc(C2(C)NC(=O)N(CC(=O)NC(C)c3ccc(CC(C)C)cc3)C2=O)cc1 (stereo not shown) | -7.75% |
| O=C(NNC(=O)c1ccncc1)Nc1ccc([N+](=O)[O-])cc1 | 11.2% |
| COc1ccc(-c2cn(-c3ccc(C)cc3)c(=O)n2CC(=O)Nc2ccc(OC)c(OC)c2)cc1 | -2.89% |
| CCOC(=O)c1ccc2c(c1)N(CC)C(=O)c1ccccc1S2 | -6.71% |
| Oc1csc(Cc2nc(-c3ccc(-c4ccccc4)cc3)cs2)n1 | 4.65% |
| N#Cc1c(Cl)nsc1NC(=O)c1ccccc1 | 8.24% |
| O=C(Nc1ccc2c(c1)CCC2)c1cccc(S(=O)(=O)Nc2ccccc2Cl)c1 | 10.4% |
| O=C1c2ccccc2S(=O)(=O)N1Cc1cccc(S(=O)(=O)N2CCOCC2)c1 | -41.4% |
| CCC(=O)Nc1nnc(SCC(=O)NC2CCCC2)s1 | -1.06% |

| SMILES | hERG current change (%, negative = inhibition) at 10uM |
| --- | --- |
| CCCCOc1ccc(C(=O)NCC(=O)NCCOc2ccccc2OC)cc1 | -10.2% |
| COCC(=O)Nc1ccc(N(C)C)cc1 | 3.03% |
| CCOc1ccccc1NC(=O)CN1C(=O)COc2ccc(C)cc21 | 11% |
| COc1ccc(CCNC(=O)C(=O)NCC2OCCN2S(=O)(=O)c2ccc(Br)cc2)cc1OC (stereo not shown) | -33.8% |
| O=C(CCc1ccccc1)N=C1SC2CS(=O)(=O)CC2N1c1ccccc1F (stereo not shown) | 10.5% |
| O=S(=O)([O-])c1cc(O)ccc1O.[K+] | 3.7% |
| CCCCn1cnc2c(sc3nc4c(cc32)CSC(C)(C)C4)c1=O | 6.96% |
| COC(=O)c1sccc1NC(=S)N(C)C1CCCCC1 | -8.5% |
| O=C(CC1C(=O)NCCN1Cc1ccoc1)NCc1cccc(OC(F)(F)F)c1 (stereo not shown) | 1.19% |
| COc1ccc(C(=O)N2CCN(C)C(=O)[C@@H]2C)cc1OC1CCN(C(C)=O)CC1 | 12.6% |
| CCC(=O)N/C(=N/c1nc(C)cc(C)n1)Nc1ccc(OC)cc1 | 4.3% |
| COc1ccc(CCNC(=O)c2cccc(NC(=O)CC3SC(N4CCCCC4)=NC3=O)c2)cc1OC (stereo not shown) | 11.7% |
| O=c1cc(N2CCc3ccccc3C2)[nH]c(=O)n1-c1ccccc1Cl | 2.99% |
| CCn1c(CCNC(=O)c2cccs2)nnc1SCC(=O)Nc1cccc(Cl)c1 | -64.5% |
| CCCN1CN(Cc2ccccc2)CNC1=S | 15.9% |
| Cc1cc(NCCCCO)n2c(nc3ccccc32)c1C#N | -18.6% |
| CC(=O)c1cc(O)c2ccccc2c1O | -2.58% |
| CCCNC(=O)COC(=O)c1ccc(OCC(=O)Nc2ccccc2OC)c(OC)c1 | 9.81% |
| CC(C)(C)c1cc(C(=S)N2CCN(CCO)CC2)cc(C(C)(C)C)c1O | -26.6% |
| CCc1ccccc1NC1=NCC(=O)N1Cc1ccc(OC)cc1.Cl | -10% |
| COc1ccccc1NC(=O)C(C)NS(=O)(=O)c1ccccc1 (stereo not shown) | -8.34% |
| COc1ccc(C2(c3ccc(OC)cc3)NC(=O)N(CC(=O)Nc3ccccc3)C2=O)cc1 | 28.6% |
